Assay results reported in PubChem BioAssay (NCATS).
Inconclusive means that the source gave no clear call. Such entries were picked first, then a sample of the others. For part of these data: A potency beside an inconclusive call is a rough fit, not a confirmed value. For part of these data: “Side channel” marks fits to a control or component signal instead of the main read-out. Activity calls are given as the source filed them. Unless noted, the call rests on the fitted dose curve; in most records, active means well fitted curve in the direction sought with a large enough effect; inconclusive means small, poorly fitted or top-dose-only effect, or another doubt; inactive means no such curve, though single readings can be large; an effect the other way counts as inactive or inconclusive.

Key:
[1] = target: 3',5'-cyclic-AMP phosphodiesterase 4B (Homo sapiens) (UniProt Q07343); test: qHTS Assay for Inhibitors of PDE-IV (AID 607; active means well fitted activation curve with a large enough effect in the main read-out, with a control signal flat, not every such curve was filed as active; inconclusive means small, poorly fitted or top-dose-only effect, or effect the other way, or a change in a side signal; further: potency means the concentration at half of the fitted maximal effect; on activation (PDE inhibition): % of control where 0% means no effect); settings: HEK293 ACTOne CNG channel cells, membrane potential fluorescence; activation (PDE inhibition): at 22.9 µM (top of the series)
UniProt Q07343, sequence (Q07343 whole entry, looked up): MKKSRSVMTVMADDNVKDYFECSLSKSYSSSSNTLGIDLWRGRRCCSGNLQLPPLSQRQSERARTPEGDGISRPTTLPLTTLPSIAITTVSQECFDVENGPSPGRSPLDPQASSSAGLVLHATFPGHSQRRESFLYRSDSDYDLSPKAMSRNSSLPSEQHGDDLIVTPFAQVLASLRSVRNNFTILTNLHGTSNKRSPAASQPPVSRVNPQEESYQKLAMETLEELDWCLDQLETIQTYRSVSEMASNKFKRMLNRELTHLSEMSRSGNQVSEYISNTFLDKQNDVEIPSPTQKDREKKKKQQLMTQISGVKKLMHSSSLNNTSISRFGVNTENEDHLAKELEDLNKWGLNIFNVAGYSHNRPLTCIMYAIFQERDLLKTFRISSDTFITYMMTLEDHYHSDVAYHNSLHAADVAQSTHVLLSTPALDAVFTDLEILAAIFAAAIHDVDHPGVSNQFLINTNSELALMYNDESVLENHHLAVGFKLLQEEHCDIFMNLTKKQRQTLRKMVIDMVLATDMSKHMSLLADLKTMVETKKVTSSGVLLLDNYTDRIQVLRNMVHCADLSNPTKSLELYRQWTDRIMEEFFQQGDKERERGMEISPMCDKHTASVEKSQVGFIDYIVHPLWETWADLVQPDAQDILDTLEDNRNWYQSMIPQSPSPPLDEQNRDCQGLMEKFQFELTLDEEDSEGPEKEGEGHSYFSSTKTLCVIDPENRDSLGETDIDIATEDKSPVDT
How it was run: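 The readout is membrane depolarisation from a cAMP-sensing CNG channel, detected with a potential dye at ex 535/em 590. Cells were HEK293-derived (endogenous PDE-IV) at 1000 cells/well, titrated up to 22.9 uM final.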

[2] = target: Cytochrome P450 3A4 (Homo sapiens) (UniProt P08684); test: qHTS Assay for Inhibitors and Substrates of Cytochrome P450 3A4 (AID 884); settings: recombinant CYP3A4, Luciferin-PPXE luminescence; activity change, negative = inhibition: at 57.1 µM (top of the series); further: potency means the concentration at half of the fitted maximal effect; nearly all actives have a fitted effect of over 50% in size
UniProt P08684, sequence (P08684 whole entry, looked up): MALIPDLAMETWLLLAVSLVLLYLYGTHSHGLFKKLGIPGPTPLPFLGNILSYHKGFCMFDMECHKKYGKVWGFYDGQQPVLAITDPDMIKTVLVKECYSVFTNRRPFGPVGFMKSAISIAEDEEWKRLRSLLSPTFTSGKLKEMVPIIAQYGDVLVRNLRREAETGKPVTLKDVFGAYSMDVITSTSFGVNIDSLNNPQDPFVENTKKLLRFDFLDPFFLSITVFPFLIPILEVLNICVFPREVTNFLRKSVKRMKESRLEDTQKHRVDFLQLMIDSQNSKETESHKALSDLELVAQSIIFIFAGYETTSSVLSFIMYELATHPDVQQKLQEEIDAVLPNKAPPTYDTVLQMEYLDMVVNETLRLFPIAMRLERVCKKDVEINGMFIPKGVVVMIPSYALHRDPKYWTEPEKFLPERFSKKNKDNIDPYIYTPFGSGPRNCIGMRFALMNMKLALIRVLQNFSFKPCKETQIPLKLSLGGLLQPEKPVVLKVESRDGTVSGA
How it was run: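 20 nM human CYP3A4 with 25 uM Luciferin-PPXE (at KM) in 200 mM KPO4, preincubated 10 min with compound; NADPH regeneration started a 60 min RT reaction. Luciferin detected by luminescence, normalized to 57 uM ketoconazole as full inhibition.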

[3] = Primary qHTS for small molecule stabilizers of the endoplasmic reticulum resident proteome: Secreted ER Calcium Modulated Protein (SERCaMP) assay (AID 1508630); settings: SH-SY5Y GLuc-SERCaMP (Gaussia luciferase released on ER calcium loss) secretion, thapsigargin, luminescence; activity change, negative = inhibition: at 38.4 µM (top of the series) unless noted; further: potency means the concentration at half of the fitted maximal effect; on activity change, negative = inhibition: on the % scale 0 is the no-effect control and ±100 the full control effect
How it was run: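 GLuc-SERCaMP-expressing SH-SY5Y cells, pretreated 16 h with compound, are challenged with thapsigargin to empty ER calcium stores; after 4 h, coelenterazine is added directly to the medium and luminescence is imaged.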

[4] = target: Mitogen-activated protein kinase 10 (Mus musculus) (UniProt Q61831); test: JNK3 AlphaScreen Assay (AID 530; active means well fitted curve in either direction with a large enough effect, not every such curve was filed as active; inconclusive means small, poorly fitted or top-dose-only effect, or another doubt;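 further: kinase came from lysate of stimulated human HepG2 cells; signal reports phosphorylation of biotinylated GST-cJun 1-79 at Ser73 with 10 µM ATP; potency means the concentration at half of the fitted maximal effect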); settings: JNK3 lysate, c-Jun phosphorylation; activity change, negative = inhibition: at 57.1 µM (top of the series)
How it was run: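 Inhibitors reduce antibody binding to phosphorylated biotin-cJun, lowering AlphaScreen luminescence. Lysates from HepG2 cells pre-activated by IL-1beta plus TNF-alpha supplied JNK3; compounds were titrated.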

[5] = qHTS Assay for Identification of Small Molecule Agonists for Hypoxia Response Element Signaling Pathway (AID 914; active means well fitted activation curve with a large enough effect in the signal ratio, with a control signal flat, not every such curve was filed as active; inconclusive means small, poorly fitted or top-dose-only effect, or effect the other way, or a change in a side signal; the % refers to the signal ratio; further: potency means the concentration at half of the fitted maximal effect; on activation: top concentration of the series differs between compounds; % of control where 0% means no effect); settings: ME-180 (cervical carcinoma) HRE-bla reporter, beta-lactamase ratio, CoCl2, 17 h; activation: active compounds read high
How it was run: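 Cells were plated overnight, pin-dosed with compound in a titration series, co-stimulated with EC50 CoCl2 and incubated 17 hours at 37 degrees Celsius. CCF4 substrate was then loaded, and AC50 values came from the 460nm/530nm ratio.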

[6] = qHTS Assay for Identification of Small Molecule Antagonists for NFkB Signaling Pathway (AID 895; active means well fitted inhibition curve with a large enough effect in the signal ratio, with a control signal flat, not every such curve was filed as active; inconclusive means small, poorly fitted or top-dose-only effect, or effect the other way, or a change in a side signal; the % refers to the signal ratio; further: on the % scale 0 is the no-effect control and ±100 the full control effect); settings: NFkB beta-lactamase reporter cells, FRET ratio 460/530, stimulated with 10 pM TNF alpha; activity change, negative = inhibition: at 38.3 µM (top of the series)
How it was run: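 NFkB-bla ME-180 cervical carcinoma cells with beta-lactamase reporter under NFkB response element; compounds added, then TNF alpha at 10 pM final (EC50), 5 h at 37 C. LiveBLAzer substrate 2 h, room temperature; emission 460/530 nm at 405 nm excitation.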

[7] = qHTS Assay for Identification of Small Molecule Antagonists for Thrombopoietin (TPO) Signaling Pathway (AID 918); settings: TPO-dependent cell signaling reporter, antagonist mode; activity change, negative = inhibition: at 38.5 µM (top of the series); further: nearly all actives have a fitted effect of over 60% in size
How it was run: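 Ba/F3 (murine, hTPO-R, GPIIb-luc reporter); overnight IL-3 withdrawal; cpd + TPO 26 pM final (EC50); 24 h 37 C/5% CO2; Steadylite luminescence after 10 min RT.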

[8] = target: Muscarinic acetylcholine receptor M1 (Rattus norvegicus) (UniProt P08482); test: qHTS Assay for Antagonists of Acetylcholine Muscarinic M1 Receptor: Kinetic Measurement of Intracellular Calcium Response (AID 943); further: potency means the concentration at half of the fitted maximal effect; nearly all actives have a fitted effect of over 75% in size
UniProt P08482, sequence (P08482 whole entry, looked up): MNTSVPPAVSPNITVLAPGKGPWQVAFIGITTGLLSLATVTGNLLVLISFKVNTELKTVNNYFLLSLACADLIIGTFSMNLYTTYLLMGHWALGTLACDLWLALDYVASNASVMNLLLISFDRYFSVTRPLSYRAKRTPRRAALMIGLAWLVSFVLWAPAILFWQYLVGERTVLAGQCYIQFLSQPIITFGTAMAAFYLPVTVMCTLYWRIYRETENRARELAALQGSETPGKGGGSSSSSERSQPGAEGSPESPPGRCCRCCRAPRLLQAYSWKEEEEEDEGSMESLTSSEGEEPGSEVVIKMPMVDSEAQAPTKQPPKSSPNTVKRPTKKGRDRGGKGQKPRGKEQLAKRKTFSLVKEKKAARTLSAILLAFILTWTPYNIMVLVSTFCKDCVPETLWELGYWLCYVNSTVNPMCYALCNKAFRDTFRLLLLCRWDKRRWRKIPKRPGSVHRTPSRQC
How it was run: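 Rat M1-CHO cells, 2000/well, overnight → Fluo-4 no-wash dye with probenecid, 1 h 37C → compound 10 min, room temp → basal read 6 s → carbachol EC80 (100 nM) → 4 min kinetic read; peak/basal.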

[9] = target: Cytochrome P450 2C19 (Homo sapiens) (UniProt P33261); test: qHTS Assay for Inhibitors and Substrates of Cytochrome P450 2C19 (AID 899); further: potency means the concentration at half of the fitted maximal effect; nearly all actives have a fitted effect of over 60% in size
UniProt P33261, sequence (P33261 whole entry, looked up): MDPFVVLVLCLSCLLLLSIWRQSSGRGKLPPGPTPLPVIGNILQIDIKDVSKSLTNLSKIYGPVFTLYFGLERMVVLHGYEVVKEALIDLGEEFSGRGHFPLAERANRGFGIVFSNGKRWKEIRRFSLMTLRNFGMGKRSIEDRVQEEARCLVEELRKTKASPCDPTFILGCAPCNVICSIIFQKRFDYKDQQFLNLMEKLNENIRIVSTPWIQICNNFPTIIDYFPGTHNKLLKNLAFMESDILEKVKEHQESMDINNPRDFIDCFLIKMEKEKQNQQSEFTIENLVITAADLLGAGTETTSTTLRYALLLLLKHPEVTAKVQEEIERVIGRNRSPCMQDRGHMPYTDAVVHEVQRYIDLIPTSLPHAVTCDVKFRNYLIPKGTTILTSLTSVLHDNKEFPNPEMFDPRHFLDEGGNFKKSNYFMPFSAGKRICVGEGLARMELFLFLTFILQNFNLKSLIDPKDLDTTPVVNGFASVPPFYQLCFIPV
How it was run: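 In 50mM KPO4, the reaction held 5nM enzyme and KM-level (10uM) Luciferin-H EGE; it ran 60 min at 37C after NADPH regeneration and a 10 min compound preincubation. Luminescence values were scaled to 57uM ketoconazole as complete inhibition.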

[10] = target: DNA polymerase iota (Homo sapiens) (UniProt Q9UNA4); test: qHTS for Inhibitors of Polymerase Iota: Confirmatory Assay for Cherry-picked Compounds (AID 720496); settings: Pol iota primer extension, TAMRA/BHQ fluorescence; further: potency means the concentration at half of the fitted maximal effect
UniProt Q9UNA4, sequence (Q9UNA4 whole entry, looked up): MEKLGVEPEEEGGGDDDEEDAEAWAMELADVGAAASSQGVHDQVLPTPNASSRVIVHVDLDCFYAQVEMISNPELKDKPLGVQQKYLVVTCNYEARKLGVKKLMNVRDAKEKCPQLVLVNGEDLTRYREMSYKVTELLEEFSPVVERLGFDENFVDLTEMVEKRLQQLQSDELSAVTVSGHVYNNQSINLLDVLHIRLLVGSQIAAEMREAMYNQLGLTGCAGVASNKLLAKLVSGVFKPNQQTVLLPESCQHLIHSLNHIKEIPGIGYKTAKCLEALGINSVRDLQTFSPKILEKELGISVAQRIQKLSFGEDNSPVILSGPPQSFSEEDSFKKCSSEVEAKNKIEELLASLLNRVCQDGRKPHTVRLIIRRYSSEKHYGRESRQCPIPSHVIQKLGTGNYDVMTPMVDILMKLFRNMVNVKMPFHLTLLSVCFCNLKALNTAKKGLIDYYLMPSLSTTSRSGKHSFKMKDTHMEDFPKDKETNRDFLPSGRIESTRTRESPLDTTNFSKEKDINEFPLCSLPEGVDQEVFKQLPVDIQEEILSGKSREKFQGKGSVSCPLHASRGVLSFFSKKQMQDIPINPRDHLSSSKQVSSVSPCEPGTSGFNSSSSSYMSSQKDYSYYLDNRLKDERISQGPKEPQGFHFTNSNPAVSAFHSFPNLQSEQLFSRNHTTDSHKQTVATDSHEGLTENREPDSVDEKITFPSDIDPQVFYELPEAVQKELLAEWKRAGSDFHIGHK
How it was run: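 Buffer-only wells, without enzyme, serve as negative control. Test wells hold 10 nM Pol iota preincubated 15 min with compound before 50 nM final fluorogenic DNA substrate is added; signal is read at 0 and 10 min.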

[11] = target: DNA polymerase eta (Homo sapiens) (UniProt Q9Y253); test: qHTS for Inhibitors of Polymerase Eta: Confirmatory Assay for Cherry-picked Compounds (AID 720502); settings: Pol eta primer extension, TAMRA/BHQ fluorescence, 10 min; further: potency means the concentration at half of the fitted maximal effect
UniProt Q9Y253, sequence (Q9Y253 whole entry, looked up): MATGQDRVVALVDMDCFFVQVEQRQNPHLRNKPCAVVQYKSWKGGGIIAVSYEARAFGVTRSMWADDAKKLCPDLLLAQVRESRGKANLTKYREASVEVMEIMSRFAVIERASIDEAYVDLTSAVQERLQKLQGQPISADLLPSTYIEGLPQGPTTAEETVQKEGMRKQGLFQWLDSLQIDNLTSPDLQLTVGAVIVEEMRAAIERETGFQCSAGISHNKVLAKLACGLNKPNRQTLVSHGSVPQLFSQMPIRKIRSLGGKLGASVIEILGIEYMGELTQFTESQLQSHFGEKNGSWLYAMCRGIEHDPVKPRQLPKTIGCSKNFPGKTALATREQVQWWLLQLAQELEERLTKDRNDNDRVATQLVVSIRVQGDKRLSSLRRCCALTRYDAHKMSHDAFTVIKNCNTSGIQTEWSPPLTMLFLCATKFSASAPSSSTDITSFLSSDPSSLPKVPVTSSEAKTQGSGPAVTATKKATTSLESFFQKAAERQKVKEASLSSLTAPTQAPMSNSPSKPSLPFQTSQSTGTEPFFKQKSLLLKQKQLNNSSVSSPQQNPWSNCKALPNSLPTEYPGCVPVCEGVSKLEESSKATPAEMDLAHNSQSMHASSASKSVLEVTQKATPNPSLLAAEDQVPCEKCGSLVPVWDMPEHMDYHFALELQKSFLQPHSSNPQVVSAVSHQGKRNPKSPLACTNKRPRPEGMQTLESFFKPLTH
How it was run: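 Readout: TAMRA dequenching, ex 525/em 598 nm, read at 0 and 10 min. Enzyme: 10 nM human Pol eta, preincubated with compound 15 min RT. Substrate: 50 nM final annealed primer/reporter/template duplex.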

[12] = target: Cytochrome P450 2C9 (Homo sapiens) (UniProt P11712); test: qHTS Assay for Inhibitors and Substrates of Cytochrome P450 2C9 (AID 883); further: potency means the concentration at half of the fitted maximal effect; nearly all actives have a fitted effect of over 60% in size
UniProt P11712, sequence (P11712 whole entry, looked up): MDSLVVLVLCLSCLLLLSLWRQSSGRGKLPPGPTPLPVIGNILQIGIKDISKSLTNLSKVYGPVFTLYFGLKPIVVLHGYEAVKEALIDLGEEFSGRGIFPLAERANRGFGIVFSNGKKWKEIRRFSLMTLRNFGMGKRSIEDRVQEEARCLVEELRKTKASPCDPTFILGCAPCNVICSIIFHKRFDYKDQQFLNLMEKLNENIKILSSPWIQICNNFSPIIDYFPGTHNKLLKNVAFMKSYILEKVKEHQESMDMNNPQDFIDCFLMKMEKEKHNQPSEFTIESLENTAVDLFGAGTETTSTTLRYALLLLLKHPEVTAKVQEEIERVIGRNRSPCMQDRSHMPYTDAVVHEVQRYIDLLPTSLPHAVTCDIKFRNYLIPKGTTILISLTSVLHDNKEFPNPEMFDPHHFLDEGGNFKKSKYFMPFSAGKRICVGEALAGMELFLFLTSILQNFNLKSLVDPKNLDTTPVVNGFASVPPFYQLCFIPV
How it was run: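 CYP2C9 deoxyluciferin hydroxylation, 37C, 60 min with NADPH regeneration; 10nM enzyme, 100uM Luciferin-H (KM). Glo detection reagent stopped reaction; luminescence normalized to sulphaphenazole (57uM) full inhibition.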

[13] = target: Cytochrome P450 3A4 (Homo sapiens) (UniProt P08684); test: qHTS Assay for Activators of Cytochrome P450 3A4 (AID 885); further: potency means the concentration at half of the fitted maximal effect; nearly all actives have a fitted effect of over 65% in size
How it was run: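 Steps: enzyme/substrate mix dispensed; compound added, 10 min RT; NADPH regeneration solution added, 60 min RT; luciferin detection buffer stops reaction; 20 min later luminescence measured.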
Tags describe the fitted curve by direction and shape or compound fluorescence and quenching.

In the case of `CN(C)Cc1ccccc1-c1nc(N(C)Cc2ccco2)c2ccccc2n1`, the Potency [1] is reported as inconclusive: 7.94 µM [rising, partial curve], the Potency [2] is reported as inconclusive: 1.58 µM [inhibitor, partial curve] and the Potency [3] is reported as inconclusive: 25.1 µM [inhibitor, single point].
With `c1ccc2oc(C3=NCCN3)cc2c1` the Potency [1] was inconclusive: 19 µM [activator, single point] and the Potency [3] was “inactive”.
With `O=C(c1ccncc1)N1CCC2(CC1)CCN(c1ccccc1)CC2` the Potency [1] was “inactive” and the Potency [3] was “inactive”.
For `O=c1c(CCc2ccccc2)nc2cnc(Oc3cccc(Cl)c3)nc2n1C[C@H]1CCCO1`, the Potency [1] was inconclusive: 15.8 µM [activator, single point] and the Potency [3] was inconclusive: 10 µM [inhibitor, single point].
For `COCCn1c(=O)c(CCc2ccccc2)nc2cnc(Oc3ccccc3)nc21`, the Potency [4] was inconclusive: 39.8 µM [activator, single point], the activation [5] was inconclusive: -26.4% and the Potency [3] was inconclusive: 28.2 µM [inhibitor, single point].
For `CC(C)NC[C@@H](O)COc1ccc(CCOCC2CC2)cc1`, the Potency [1] was inconclusive: 19 µM [activator, partial curve, poor fit], the activity change, negative = inhibition [6] was inconclusive: -5.56% and the activity change, negative = inhibition [7] was inconclusive: -11.8% [phenotype inactive]. For the same molecule, the Potency [8] was inconclusive: 0.0316 µM [inhibitor, full curve, poor fit] and the Potency [3] was “inactive”.
For `N#Cc1cccc(-c2nc3cnc(N4CCOCC4)nc3n(Cc3ccc(F)cc3)c2=O)c1`, the activation [5] was inconclusive: 32.3% and the Potency [3] was “inactive”.
In the case of `O=S(=O)(c1ccccc1)N1CCC[C@@]2(CCN(Cc3ccccc3)C2)C1`, the Potency [2] is reported as inconclusive: 1.26 µM [inhibitor, full curve] and the Potency [3] is reported as inconclusive: 10 µM [inhibitor, partial curve, poor fit].
For `COc1ccc(C(=O)N2CCC3(CCCN(C(=O)Nc4cccc(F)c4)C3)CC2)cc1`, the Potency [1] was inconclusive: 10 µM [activator, single point], the activation [5] was inactive: -19.5% and the Potency [3] was inconclusive: 31.6 µM [inhibitor, single point].
For `CN1CC[C@@]2(CCCN(C(=O)c3cccn3C)C2)C1`, the Potency [2] was inconclusive: 7.94 µM [inhibitor, partial curve] and the Potency [3] was inconclusive: 2.82 µM [inhibitor, full curve, poor fit].
For `Cc1ccccc1-c1cncnc1NCc1cccnc1`, the Potency [9] was active: 0.398 µM and the Potency [3] was “inactive”.
In the case of `COCCn1c(=O)c(-c2ccc(F)cc2)nc2cnc(Nc3cccc(OC)c3)nc21`, the activation [5] is reported as inconclusive: 22.4% and the Potency [3] is reported as inconclusive: 28.2 µM [inhibitor, single point].
For `O=C(/C=C/c1ccc(O)c(O)c1)NC(=O)c1ccccc1O`, the Potency [10] was inconclusive: 75.2 µM [inhibitor, partial curve], the Potency [11] was active: 60.1 µM and the Potency [3] was inconclusive: 11.2 µM [inhibitor, single point].
With `CN(C)Cc1ccccc1-c1cc(N(C)C)ncn1` the Potency [1] was “inactive”, the activation [5] was inactive: 5.79% and the Potency [3] was “inactive”.
In the case of `COc1cccc(-c2cncnc2-n2ccnc2)c1`, the Potency [12] is reported as inconclusive: 0.631 µM [inhibitor, partial curve] and the Potency [3] is reported as “inactive”.
For `COc1ccccc1-c1nc(N(C)C)c2ccccc2n1`, the activation [5] was inconclusive: 30.3% and the Potency [3] was inconclusive: 28.2 µM [inhibitor, single point].
In the case of `COc1ccc(Oc2ncc3nc(-c4cccc(C#N)c4)c(=O)n(Cc4cccc(OC)c4)c3n2)cc1`, the Potency [12] is reported as inconclusive: 2.51 µM [inhibitor, full curve], the Potency [5] is reported as inconclusive: 3.98 µM [cytotoxic, side channel, single point] and the Potency [3] is reported as inconclusive: 12.6 µM [inhibitor, single point].
For `O=C(Nc1ccccc1)N1CC2(CCN(S(=O)(=O)c3ccccc3)CC2)C1`, the activation [5] was inactive: -12.4% and the Potency [3] was “inactive”.
In the case of `COc1ccc(C(=O)N2CCC3(CC2)CN(c2ccccc2)C3)cc1`, the Potency [5] is reported as inconclusive: 2.51 µM [inhibitor, single point] and the Potency [3] is reported as inconclusive: 28.2 µM [inhibitor, single point].
For `Clc1ccccc1-c1nc(N2CCNCC2)c2ccccc2n1`, the activation [5] was inactive: 16.5% and the Potency [3] was inconclusive: 10 µM [inhibitor, partial curve, poor fit].
In the case of `O=C(c1csnn1)N1CCC2(CC1)CN(c1ccccn1)C2`, the Potency [13] is reported as active: 25.1 µM and the Potency [3] is reported as “inactive”.
